Data on 22 molecules can be found in article PMC12136788.

Sequences and labels used below:
B1: chrX:20248820:20248821:+_ENSMUSG00000001924_ENSMUST00000001989|mus_mus|mus_mus_mus_hu_True|58_108 (ssRNA)
RNA: GGGAGUUCUACAGUCCGACGAUCGGCAAAGUCAGUCACCACAAAGUCAGGUUCUGCCAGUGAGGCCACCAAGGAUUUAAAACUAAUCUUCUUAGGUACUUUGACCUGACUGACGAUGCCUCCACGGAUGUAGUCGGAGAAGUUCAACAGAGGAUUGAGCAUCA
B2: chr1:168153195:168153196:+_ENSG00000143155_ENST00000367833|hu_hu|FALSE|FALSE (ssRNA)
RNA: GGGAGUUCUACAGUCCGACGAUCUAAAACGUUGUCUCCAAACAUCAUUUCAGGGAGAGAUGGCAUAUGUAAUUCAUCGGCUAAUUUCUCCACAUCCGCCGACUUCAUGAUGUGGGUCUUGGACGCCGUCAGCUUCCAGGGCCCCAACAGAGGAUUGAGCAUCA
B3: 73116076_73116196_2691_3pUTR_ENSG00000054965_ENST00000064778|human|control|control (ssRNA)
RNA: GGGAGUUCUACAGUCCGACGAUCCUCUUCUCCCAGAUGAGCCUGUCUCCUGGGCCUCAUCCUCAUUCUCCUCUCCUGAUGACUCCCACUGUCUUCCUCCUCUUCCUCUCCUCUCGGGAUGAGGGGCUACUGUCCUAAAAGCAUCAACAGAGGAUUGAGCAUCA
B4: chr14:89305849:89305850:+_ENSG00000165533_ENST00000346301|hu_mus|FALSE|FALSE (ssRNA)
RNA: GGGAGUUCUACAGUCCGACGAUCAGCAUUUUCAUCCAGGAUCAUUUCAGCAAUUCCUUCCUGGUCCACAUCAAUUUCAUCUAUGUACACCAUCUCUGUCAGCGCCCGUGCUUUCAAAAUCCAAGCCGCCUGAUCAUAAGGGGACAACAGAGGAUUGAGCAUCA
B5: 102142660_102142780_3167_3pUTR_ENSMUSG00000027189_ENSMUST00000102573|mouse|control|control (ssRNA)
RNA: GGGAGUUCUACAGUCCGACGAUCUGAUUACUGAGAAAGACAAGACAAGCUUCCAAACUGUCAAGUCUUUUCAAUCUUGUGAUAGUUUACACUCUUUCUACAGUGGCCCUUCUUUUAAAAUUUUGGCAGAACAGGAUAUCACUGCAACAGAGGAUUGAGCAUCA
B6: chr16:56712917:56712918:-_ENSMUSG00000022757_ENSMUST00000065515|mus_mus|motif|central (ssRNA)
RNA: GGGAGUUCUACAGUCCGACGAUCAUAAUCAGCUUCCCACUUAGGUCCAACUGUCCGUUCAUUGUGGAGUCCAGGAUGCUCGGUAUAUACAACUCUAGGGGAAAAAAACCCGCUUGCCGAGGCCGUCCACCUCAGCUGACCCGGCAACAGAGGAUUGAGCAUCA
B7: chr4:45007048:45007049:-_ENSMUSG00000049657_ENSMUST00000055028|mus_mus|motif|central (ssRNA)
RNA: GGGAGUUCUACAGUCCGACGAUCGCUCUGACUUGCACUGAAAUUACUCCCCCUGCUCUUGUUGAGAAAAUUGGAAAUACGGAAAGAGGUCUUAUGUUCUAGAUUAUUCGUGACUUCCAAGAUGUGGAUGUCCCCGACCCUGUCCAACAGAGGAUUGAGCAUCA
B8: chr7:150775722:150775723:-_ENSG00000164896_ENST00000297532|hu_hu|FALSE|FALSE (ssRNA)
RNA: GGGAGUUCUACAGUCCGACGAUCUUCCUGAACCACCAGGAAGUGGGCAAUGGCUUCCAGAAGCUGGGGCUCCCGCAACCGGUGCCGGGCCAGGUGCUGGGCCAGGAGCACCAUCACGUGGGGAGUCAGUUCCUCUGGCCUUGCCAACAGAGGAUUGAGCAUCA
B9: chr3:71021771:71021772:-_ENSG00000114861_ENST00000475937|hu_hu|motif|central (ssRNA)
RNA: GGGAGUUCUACAGUCCGACGAUCCACUGUCCAUACUGCCCCUUUAACGUUUUCUACUCGCACAAAACACUUGUGAAGACGGAGAUUAUGACGCACUGCAUUCUUCCACGUGGCCGCGUUGCGUCGGAAGUAAGCAAACAUUCGCAACAGAGGAUUGAGCAUCA
B10: chr7:140404665:140404666:+_ENSG00000090266_ENST00000247866|hu_hu|hu_hu_hu_mus_False|88_98 (ssRNA)
RNA: GGGAGUUCUACAGUCCGACGAUCUGCUCCUACUCGUAGGCUGAGUCUACACCUUCAGUCCUCGUCAUCAGGAGGGAUUCCCAGUUCUUCAUCUGUCCACUGUGAAGGAUCUGGAUAUGAAAAGUGACCCAGCACAGCAUCCGACAACAGAGGAUUGAGCAUCA
B11: 79685907_79689965_1188_CDS_ENSG00000067715_ENST00000261205|human|control|control (ssRNA)
RNA: GGGAGUUCUACAGUCCGACGAUCUUUUGUCUCAAAUUUCUUCUUCUUAUCAGGUAGCAGAAACACUUUCACGUAAGGAUCAGAUGUGCCCCCCAUGUCCAAGGCGGGCAGUUCGGCAGCCUGAAUGAUCCCUACCAGCAGCUGCAACAGAGGAUUGAGCAUCA
B12: chr4:107939148:107939149:-_ENSMUSG00000034636_ENSMUST00000043616|mus_hu|FALSE|FALSE (ssRNA)
RNA: GGGAGUUCUACAGUCCGACGAUCCAUCUGGUUGCCCCUAAAAAUACCCACAGUUCCAUCAUUCAAUAGACCAUGAAAAGCCAUGGUCCGAAGCAGUCGAUCAGCCACCUCCUGUGGGAAUACUCCAGGUUCCUGCAGACACAACAACAGAGGAUUGAGCAUCA
B13: chr5:135496556:135496557:+_ENSG00000113658_ENST00000545279|hu_mus|FALSE|FALSE (ssRNA)
RNA: GGGAGUUCUACAGUCCGACGAUCGUUCCUGAACUGAACCAGAAGGCUGUGUUGUGGAUUGAAUUCAUUGUGACGAGGCACUAAUACUGGAGGUAAGACUGGACUCUCCACUCUCUUAUAGUGGUAUGGAUUGAUACAAACUUCCAACAGAGGAUUGAGCAUCA
B14: chr6:41757443:41757444:+_ENSG00000214736_ENST00000398881|hu_mus|hu_hu_hu_mus_False|8_78 (ssRNA)
RNA: GGGAGUUCUACAGUCCGACGAUCGAACCGUGCAGAGGCAACAUCUCAGCCGACACUGUGGACUCAAGGGGCAGUGGGGGGGGGUUCAGGCAAGGAGAGGGAGUCAACUUCAGCUGCCACUCAGGUAGCUGCCAUCAGUCACAGCAACAGAGGAUUGAGCAUCA
B15: 35327869_35327989_914_CDS_ENSG00000108094_ENST00000537177|human|control|control (ssRNA)
RNA: GGGAGUUCUACAGUCCGACGAUCUAUAUUAUGACAUUCUGCAUGUAAAAACUGUAAGUGGUCUGCUACCAUUCGUUGUUGACAUUCAUGAAUCACCUUAGUAUAUGAACUUGGAUGUAGGUAUUUUCGACAUCGAAUUUCUUCCAACAGAGGAUUGAGCAUCA
B16: chr17:38574076:38574077:-_ENSG00000131747_ENST00000423485|hu_hu|motif|central (ssRNA)
RNA: GGGAGUUCUACAGUCCGACGAUCAAUGGUGACACUUCCAUGGUGACGGUCGUGAAGGGGCUCAAGAACCCUGAAAGCGACGGAACAGGCAGGACCCCACGAGACCACCCCCGACCAAGCCGCUUCUCCACAGACGCGCGUCGGCAACAGAGGAUUGAGCAUCA
B17: 114354866_114354986_172_CDS_ENSG00000081019_ENST00000261441|human|control|control (ssRNA)
RNA: GGGAGUUCUACAGUCCGACGAUCCACCGCUCCGACCUGCGCAGCCAUUUCACCCACAAACACACAUUUAAAUGGCCCGACCGCCCCCCCGUCCGCGCAUCGCGCAAGCGCCGCCCGCGCACUGCCCGCUGGGCAUUGGAGUCUCAACAGAGGAUUGAGCAUCA
B18: chr4:25749455:25749456:-_ENSG00000091490_ENST00000264868|hu_hu|hu_hu_hu_mus_False|18_18 (ssRNA)
RNA: GGGAGUUCUACAGUCCGACGAUCGCACUAUGACCUCUAGAAAAAUCCACAGGGGGAAAAAAUGUAAACCAAUGUACAAUGUUAUCGCCUUCCCUGUGUGUGGAGUGUUUGUCUCAAUAUUUCAAGGAGCUGCUGGAUUUGGGACAACAGAGGAUUGAGCAUCA
B19: 149838666_149838786_1652_3pUTR_ENSMUSG00000048583_ENSMUST00000000033|mouse|control|control (ssRNA)
RNA: GGGAGUUCUACAGUCCGACGAUCGUCACACAUAGAGCCAAUAAGCAGCAGCAGAAACUAGAUGGAUUGGGAGGAGAGCUCAAACCAUGCAAACUGCUCAGGAAAUUUGGGAUGGGCCUUGUUUUGGGGAAUGUGGUUCAAAUCCAACAGAGGAUUGAGCAUCA
B20: chr14:35182089:35182090:-_ENSG00000165410_ENST00000422678|hu_hu|motif|central (ssRNA)
RNA: GGGAGUUCUACAGUCCGACGAUCCUUAAGAUCCAGAUGGCACUUGACUGUCAUUUUAUAAUGGUUUUCCUUCAAGUGAAACGGCGGCAUUGCCUCCCAAUUUCUCUCCAAGUGUCGAACGGUCCUUAAUAUCAUCCAAGCCAUCAACAGAGGAUUGAGCAUCA
B21: chr4:174295105:174295106:+_ENSG00000164105_ENST00000296504|hu_mus|motif|central (ssRNA)
RNA: GGGAGUUCUACAGUCCGACGAUCUUGUGCUUUAUUUAGACCUGGUCUGGUUGGAAGCUUGAAGUGUCUUUUGUAUCUUCGGAGUGUAUUUACUUGUAAUUGGUACAAAUCAACCUCUGGAGUGUCGAUGUCCUGAACAGGCGACAACAGAGGAUUGAGCAUCA
B22: chr8:95500983:95500984:-_ENSG00000164944_ENST00000437199|hu_hu|hu_hu_hu_mus_True|1_98 (ssRNA)
RNA: GGGAGUUCUACAGUCCGACGAUCAGAACACAUCUAUUCGUGUAAAGACCGUACAUGACGGCCUCUACCACUGCCUCCACUAACAAACUUUCCUCUCGAGCCUCCACUGCCGCUAUUUGUACUAGCCCAGGACGGUCCCAAGUCCAACAGAGGAUUGAGCAUCA

The list shows a part of the results.

The experiment deals with T1, UNK ZnF1-3 (human, UniProt Q9C0B0 31-174).
T1 sequence: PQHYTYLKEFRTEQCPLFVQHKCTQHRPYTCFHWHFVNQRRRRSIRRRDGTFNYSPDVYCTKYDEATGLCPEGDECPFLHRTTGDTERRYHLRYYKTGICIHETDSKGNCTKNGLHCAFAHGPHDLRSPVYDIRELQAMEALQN
Put plainly: nsRBNS (natural sequence RNA bind-n-seq); RBNS binding buffer (assumed for nsRBNS): 25 mM Tris pH 7.5, 150 mM KCl, 3 mM MgCl2, 0.01% Triton X-100, 500 ug/ml BSA, 20 U/ml SUPERase-In, 4 C; UNK is unkempt and MSI1 is Musashi-1; names of the RNAs are library labels; protein concentration not given here; high values mean tight binding.
Molecule B1 had a binding signal of 0.927 enrichment R.

The molecule B2 gave a binding signal of 0.513 enrichment R.

On to B3, for which the binding signal turned out to be 0.676 enrichment R.

The molecule B4 gave a binding signal of 1.96 enrichment R.

In turn, B5 yielded a binding signal of 1.06 enrichment R.

Take B6: the binding signal is 0.998 enrichment R.

Molecule B7 displayed a binding signal of 0.948 enrichment R.

In turn, B8 displayed a binding signal of 0.841 enrichment R.

For B9, the binding signal stood at 1.01 enrichment R.

For the molecule B10, the binding signal was 0.799 enrichment R.

The molecule B11 displayed a binding signal of 0.977 enrichment R.

For B12, the binding signal came out at 1.5 enrichment R.

Consider B13, for which the binding signal was 1.04 enrichment R.

Consider B14, for which the binding signal is 2.1 enrichment R.

Molecule B15 registered a binding signal of 0.512 enrichment R.

B16 registered a binding signal of 0.885 enrichment R.

Turning to B17, the binding signal was 1.3 enrichment R.

B18: the binding signal worked out at 1.37 enrichment R.

As to B19, the binding signal is 3.17 enrichment R.

B20: the binding signal is 0.649 enrichment R.

In the case of B21, the binding signal worked out at 0.62 enrichment R.

In turn, B22 came in with a binding signal of 1.01 enrichment R.
